# Assay results as given in the supplement of paper PMC8728848.
# This is one part of the list.
# B1: MpL2 (Macrolepiota procera) (protein)
# chain: MSTQVSSGQTYKITNVKAGTVIRLSGEDNKSIIGYPYHSGKNQQWTFNWTGKAWTLRSASSGSYLGIEGTPADGTRLVAVNDPFEWHIWRDEANENAFRIFVPFTNYNLDLSGYGDTTPGTPVQLWWTWEGLHQTWTIDRP
# Experiments:
# Experiment in all cases: glycan array binding signal (z-score within array); higher = stronger binding
# Details in all cases: glycan notation: IUPAC condensed, linker removed; mutation: D22R
# [1] = biological target: Neu5Ac(a2-3)Gal(b1-3)]Neu5Ac(a2-3)Gal(b1-4)]GlcNAc
# In short: (§1)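 Glycan array binding is given as a within-array Z-score, which can be read as non-binding when negative. The arrays, 3228 of them, came from the Consortium for Functional Glycomics database and were retained only where the protein sequence was available. Z-scores were averaged across arrays of the same protein sequence at different concentrations or buffers and across linkers.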
# Neu5Ac(a2-3)Gal(b1-4)Glc = biological target: Neu5Ac(a2-3)Gal(b1-4)Glc
# In short: as §1
# [2] = biological target: Neu5Ac(a2-3)Gal(b1-4)GlcNAc
# In short: as §1
# [3] = biological target: Neu5Ac(a2-3)Gal(b1-4)GlcNAc(b1-2)Man
# In short: as §1
# [4] = biological target: Neu5Ac(a2-3)Gal(b1-4)GlcNAc(b1-2)Man(a1-3)[GlcNAc(b1-4)][Neu5Ac(a2-3)Gal(b1-4)GlcNAc(b1-2)Man(a1-6)]Man(b1-4)GlcNAc(b1-4)GlcNAc
# In short: as §1
# [5] = biological target: Neu5Ac(a2-3)Gal(b1-4)GlcNAc(b1-2)Man(a1-3)[Neu5Ac(a2-3)Gal(b1-4)GlcNAc(b1-2)Man(a1-6)]Man(b1-4)GlcNAc(b1-4)GlcNAc
# In short: as §1
# [6] = biological target: Neu5Ac(a2-3)Gal(b1-4)GlcNAc(b1-2)Man(a1-3)[Neu5Ac(a2-3)Gal(b1-4)GlcNAc(b1-2)Man(a1-6)]Man(b1-4)GlcNAc(b1-4)[Fuc(a1-6)]GlcNAc
# In short: as §1
# [7] = biological target: Neu5Ac(a2-3)Gal(b1-4)GlcNAc(b1-2)Man(a1-3)[Neu5Ac(a2-6)Gal(b1-4)GlcNAc(b1-2)Man(a1-6)]Man(b1-4)GlcNAc(b1-4)GlcNAc
# In short: as §1
# [8] = biological target: Neu5Ac(a2-3)Gal(b1-4)GlcNAc(b1-2)[Neu5Ac(a2-3)Gal(b1-4)GlcNAc(b1-4)]Man(a1-3)[GlcNAc(b1-4)][Neu5Ac(a2-3)Gal(b1-4)GlcNAc(b1-2)[Neu5Ac(a2-3)Gal(b1-4)GlcNAc(b1-6)]Man(a1-6)]Man(b1-4)GlcNAc(b1-4)GlcNAc
# In short: as §1
# [9] = biological target: Neu5Ac(a2-3)Gal(b1-4)GlcNAc(b1-2)[Neu5Ac(a2-3)Gal(b1-4)GlcNAc(b1-4)]Man(a1-3)[GlcNAc(b1-4)][Neu5Ac(a2-3)Gal(b1-4)GlcNAc(b1-4)Man(a1-6)]Man(b1-4)GlcNAc(b1-4)GlcNAc
# In short: as §1
# [10] = biological target: Neu5Ac(a2-3)Gal(b1-4)GlcNAc(b1-2)[Neu5Ac(a2-3)Gal(b1-4)GlcNAc(b1-6)]Man(a1-6)[Neu5Ac(a2-3)Gal(b1-4)GlcNAc(b1-2)Man(a1-3)][GlcNAc(b1-4)]Man(b1-4)GlcNAc(b1-4)GlcNAc
# In short: as §1
# [11] = biological target: Neu5Ac(a2-3)Gal(b1-4)GlcNAc(b1-3)Gal
# In short: as §1
# [12] = biological target: Neu5Ac(a2-3)Gal(b1-4)GlcNAc(b1-3)Gal(b1-3)GlcNAc
# In short: as §1
# [13] = biological target: Neu5Ac(a2-3)Gal(b1-4)GlcNAc(b1-3)Gal(b1-4)GlcNAc
# In short: as §1
# [14] = biological target: Neu5Ac(a2-3)Gal(b1-4)GlcNAc(b1-3)Gal(b1-4)GlcNAc(b1-2)Man(a1-3)[Neu5Ac(a2-3)Gal(b1-4)GlcNAc(b1-3)Gal(b1-4)GlcNAc(b1-2)Man(a1-6)]Man(b1-4)GlcNAc(b1-4)GlcNAc
# In short: as §1
# [15] = biological target: Neu5Ac(a2-3)Gal(b1-4)GlcNAc(b1-3)Gal(b1-4)GlcNAc(b1-3)Gal(b1-4)GlcNAc
# In short: as §1
# [16] = biological target: Neu5Ac(a2-3)Gal(b1-4)GlcNAc(b1-3)Gal(b1-4)GlcNAc(b1-3)Gal(b1-4)GlcNAc(b1-2)Man(a1-3)[Neu5Ac(a2-3)Gal(b1-4)GlcNAc(b1-3)Gal(b1-4)GlcNAc(b1-3)Gal(b1-4)GlcNAc(b1-2)Man(a1-6)]GalNAc
# In short: as §1
# [17] = biological target: Neu5Ac(a2-3)Gal(b1-4)GlcNAc(b1-3)Gal(b1-4)GlcNAc(b1-3)GalNAc
# In short: as §1
# [18] = biological target: Neu5Ac(a2-3)Gal(b1-4)GlcNAc(b1-3)Gal(b1-4)GlcNAc(b1-3)[Neu5Ac(a2-3)Gal(b1-4)GlcNAc(b1-3)Gal(b1-4)GlcNAc(b1-6)]GalNAc
# In short: as §1
# [19] = biological target: Neu5Ac(a2-3)Gal(b1-4)GlcNAc(b1-3)Gal(b1-4)GlcNAc(b1-6)[Gal(b1-3)]GalNAc
# In short: as §1
# [20] = biological target: Neu5Ac(a2-3)Gal(b1-4)GlcNAc(b1-3)Gal(b1-4)[Fuc(a1-3)]GlcNAc
# In short: as §1
# [21] = biological target: Neu5Ac(a2-3)Gal(b1-4)GlcNAc(b1-3)GalNAc
# In short: as §1
# [22] = biological target: Neu5Ac(a2-3)Gal(b1-4)GlcNAc(b1-3)[Neu5Ac(a2-3)Gal(b1-4)GlcNAc(b1-6)]GalNAc
# In short: as §1
# [23] = biological target: Neu5Ac(a2-3)Gal(b1-4)GlcNAc(b1-6)GalNAc
# In short: as §1
# [24] = biological target: Neu5Ac(a2-3)Gal(b1-4)GlcNAc(b1-6)[Gal(b1-3)]GalNAc
# In short: as §1
# [25] = biological target: Neu5Ac(a2-3)Gal(b1-4)GlcNAc(b1-6)[Neu5Ac(a2-3)Gal(b1-3)]GalNAc
# In short: as §1
# [26] = biological target: Neu5Ac(a2-3)Gal(b1-4)GlcNAc6S
# In short: as §1
# [27] = biological target: Neu5Ac(a2-3)Gal(b1-4)[Fuc(a1-3)]GlcNAc
# In short: as §1
# [28] = biological target: Neu5Ac(a2-3)Gal(b1-4)[Fuc(a1-3)]GlcNAc(b1-2)Man
# In short: as §1
# [29] = biological target: Neu5Ac(a2-3)Gal(b1-4)[Fuc(a1-3)]GlcNAc(b1-3)Gal
# In short: as §1
# [30] = biological target: Neu5Ac(a2-3)Gal(b1-4)[Fuc(a1-3)]GlcNAc(b1-3)Gal(b1-4)GlcNAc
# In short: as §1
# [31] = biological target: Neu5Ac(a2-3)Gal(b1-4)[Fuc(a1-3)]GlcNAc(b1-3)Gal(b1-4)[Fuc(a1-3)]GlcNAc(b1-3)Gal(b1-4)[Fuc(a1-3)]GlcNAc
# In short: as §1
# [32] = biological target: Neu5Ac(a2-3)Gal(b1-4)[Fuc(a1-3)]GlcNAc(b1-3)GalNAc
# In short: as §1
# [33] = biological target: Neu5Ac(a2-3)Gal(b1-4)[Fuc(a1-3)]GlcNAc(b1-6)[Gal(b1-3)]GalNAc
# In short: as §1
# [34] = biological target: Neu5Ac(a2-3)Gal(b1-4)[Fuc(a1-3)]GlcNAc(b1-6)[Neu5Ac(a2-3)Gal(b1-3)]GalNAc
# In short: as §1
# [35] = biological target: Neu5Ac(a2-3)Gal(b1-4)[Fuc(a1-3)]GlcNAc6S
# In short: as §1
# [36] = biological target: Neu5Ac(a2-3)Gal6S(b1-4)GlcNAc
# In short: as §1
# [37] = biological target: Neu5Ac(a2-3)Gal6S(b1-4)[Fuc(a1-3)]GlcNAc
# In short: as §1
binder,measurement,setting,value
B1,glycan array binding signal (z-score),[1],-0.346
same,glycan array binding signal (z-score),Neu5Ac(a2-3)Gal(b1-4)Glc,0.286
same,glycan array binding signal (z-score),[2],-0.933
same,glycan array binding signal (z-score),[3],0.304
same,glycan array binding signal (z-score),[4],-0.03
same,glycan array binding signal (z-score),[5],-0.534
same,glycan array binding signal (z-score),[6],0.287
same,glycan array binding signal (z-score),[7],-0.105
same,glycan array binding signal (z-score),[8],-0.66
same,glycan array binding signal (z-score),[9],-0.638
same,glycan array binding signal (z-score),[10],-0.76
same,glycan array binding signal (z-score),[11],-0.565
same,glycan array binding signal (z-score),[12],-0.092
same,glycan array binding signal (z-score),[13],0.013
same,glycan array binding signal (z-score),[14],1.93
same,glycan array binding signal (z-score),[15],-0.861
same,glycan array binding signal (z-score),[16],1.5
same,glycan array binding signal (z-score),[17],-0.278
same,glycan array binding signal (z-score),[18],0.155
same,glycan array binding signal (z-score),[19],-0.014
same,glycan array binding signal (z-score),[20],-0.58
same,glycan array binding signal (z-score),[21],-0.161
same,glycan array binding signal (z-score),[22],0.08
same,glycan array binding signal (z-score),[23],-1.26
same,glycan array binding signal (z-score),[24],0.265
same,glycan array binding signal (z-score),[25],-0.836
same,glycan array binding signal (z-score),[26],-0.566
same,glycan array binding signal (z-score),[27],-0.189
same,glycan array binding signal (z-score),[28],-0.833
same,glycan array binding signal (z-score),[29],-0.033
same,glycan array binding signal (z-score),[30],0.077
same,glycan array binding signal (z-score),[31],-0.574
same,glycan array binding signal (z-score),[32],0.709
same,glycan array binding signal (z-score),[33],0.668
same,glycan array binding signal (z-score),[34],0.565
same,glycan array binding signal (z-score),[35],-0.024
same,glycan array binding signal (z-score),[36],-0.454
same,glycan array binding signal (z-score),[37],-0.637
